Experimental data: PubChem BioAssay AID1768 (National Center for Advancing Translational Sciences (NCATS), 2009)
Among all 270,000 compounds or so, about 620 (0.23%) were called active. This list was built around the results that the source calls inconclusive (neither active nor inactive); the mix of calls is not that of the screen. The call rests on the fitted dose curve; in most records, active means well fitted inhibition curve with a large enough effect in the polarisation, with a control signal flat (not every such curve was filed as active); inconclusive means small, poorly fitted or top-dose-only effect, or effect the other way, or a change in a side signal; inactive means no such curve, though single readings can be large or run the other way; the % refers to the polarisation. Potencies beside an inconclusive call are fits to weak or partial responses and may not hold up. “Side channel” marks fits to a control or component signal instead of the main read-out.

biological target: Menin (Homo sapiens) (UniProt O00255); test: qHTS Assay for Inhibitors Targeting the Menin-MLL Interaction in MLL Related Leukemias: Competition With Texas Red Labeled MLL-derived Mutant Peptide; settings: fluorescence polarization; series mostly up to 61.6 µM
Potency means the concentration at half of the fitted maximal effect; tags describe the fitted curve by direction and shape or compound fluorescence and quenching.

Sequence of UniProt O00255 (O00255 whole entry, looked up): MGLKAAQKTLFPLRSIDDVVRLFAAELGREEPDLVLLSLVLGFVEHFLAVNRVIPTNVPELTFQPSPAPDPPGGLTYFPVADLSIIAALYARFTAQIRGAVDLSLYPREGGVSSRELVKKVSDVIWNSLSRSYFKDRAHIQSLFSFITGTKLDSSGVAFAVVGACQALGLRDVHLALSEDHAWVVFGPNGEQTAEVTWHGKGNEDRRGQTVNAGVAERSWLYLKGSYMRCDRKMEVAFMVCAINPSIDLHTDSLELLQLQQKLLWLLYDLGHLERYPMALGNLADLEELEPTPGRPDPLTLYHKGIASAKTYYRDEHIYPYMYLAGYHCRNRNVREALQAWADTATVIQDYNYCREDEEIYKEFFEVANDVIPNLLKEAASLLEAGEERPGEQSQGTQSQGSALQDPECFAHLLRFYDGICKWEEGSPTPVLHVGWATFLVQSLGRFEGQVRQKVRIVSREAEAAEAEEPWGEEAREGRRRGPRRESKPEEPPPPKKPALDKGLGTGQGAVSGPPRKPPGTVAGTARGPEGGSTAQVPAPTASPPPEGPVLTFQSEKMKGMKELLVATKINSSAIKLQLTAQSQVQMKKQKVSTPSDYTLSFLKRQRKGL

Compound | Potency
O=C(C1=C[C@@H](C2CCCCC2)C[C@@H](OCCCCO)O1)N1CCN(Cc2ccc3c(c2)OCO3)CC1 | inconclusive: 2 µM [fluorescent, side channel, full curve]
O=C(Cc1c(F)cccc1Cl)Nc1nc2ccccc2s1 | inconclusive: 39.8 µM [quencher, side channel, single point]
O=[N+]([O-])c1ccccc1SNc1ccc(Br)cn1 | inconclusive: 28.2 µM [quencher, side channel, partial curve]
O=C1c2ccc3c4c(ccc(c24)C(=O)N1CCCCO)C(=O)N(CCCCO)C3=O | inconclusive: 3.98 µM [inhibitor, full curve, poor fit]
CC[C@H]1OC(=O)[C@H](C)[C@@H](O[C@H]2C[C@@](C)(OC)[C@@H](O)[C@H](C)O2)[C@H](C)[C@@H](O[C@@H]2O[C@H](C)C[C@H](N(C)C)[C@H]2O)[C@](C)(O)C[C@@H](C)[C@@H]2N[C@@H](COCCOC)O[C@H]([C@H]2C)[C@]1(C)O | inconclusive: 20 µM [inhibitor, partial curve]
CCOC(=O)C(=O)Nc1nnc(Cc2ccc(OC)c(OC)c2)s1 | inactive
COCC(=O)N(Cc1cc2ccc(C)cc2[nH]c1=O)c1cccc(C)c1 | inconclusive: 14.1 µM [fluorescent, side channel, partial curve]
COc1ccc(/C=C/C(=O)Nc2cccc(S(=O)(=O)N3CCCC3)c2)cc1OC | inconclusive: 12.6 µM [quencher, side channel, partial curve]
N#Cc1ccccc1NC(=O)CSC1=Nc2ccccc2C2CC=NN12 (stereo not given) | inactive
COc1ccc(CCNc2cc(C)nc3c(-c4ccccc4)cnn23)cc1OC | inconclusive: 8.91 µM [quencher, side channel, partial curve]
Cc1ccc(CCNC(=O)C2CCN(S(=O)(=O)c3ccc4c(c3)oc(=O)n4C)CC2)cc1 | inconclusive: 22.4 µM [fluorescent, side channel, partial curve]
Cc1ccc2nc(NC(=O)C3CCN(S(=O)(=O)c4cc([N+](=O)[O-])ccc4Cl)CC3)sc2c1 | inconclusive: 8.91 µM [quencher, side channel, partial curve]
COC(=O)N/N=C/c1ccc(-c2ccc(Cl)c(Cl)c2)o1 | inconclusive: 17.8 µM [quencher, side channel, partial curve]
Cc1ccn2c(NC3CCCC3)c(-c3ccccn3)nc2c1 | inactive
CN1CCN(c2ccnc(-c3ccc(N(C)C)cc3)n2)CC1 | inactive
CCOC(=O)c1[nH]c2ccc(OC)cc2c1NC(=O)C(C)N1CCC2(CC1)OCCO2 (stereo not given) | inactive
c1ccc(CNc2oc(-c3ccccc3)nc2-c2cccc3ccccc23)cc1 | inconclusive: 7.08 µM [inhibitor, single point]
Cc1ccc(S(=O)(=O)N2CCCCC2C(=O)N2CCN(Cc3ccccc3)CC2)cc1 (stereo not given) | inconclusive: 22.4 µM [fluorescent, side channel, single point]
O=C(Nc1cccc(-c2cnc3ccccc3n2)c1)c1ccco1 | inconclusive: 11.2 µM [quencher, side channel, partial curve]
O=C(O)c1ccc(N=NNc2cccc([N+](=O)[O-])c2)cc1 | inconclusive: 28.2 µM [quencher, side channel, single point]
O=C(/C=C/c1ccco1)Oc1cc(Br)cc(/C=N/NC(=O)c2ccccc2O)c1 | inconclusive: 11.2 µM [quencher, side channel, partial curve]
Cc1cc(C)c(NC2=NCC(=O)N2C2CCCCC2)c(C)c1 | inconclusive: 44.7 µM [inhibitor, partial curve]
Oc1cccc(Nc2nc(-c3ccccc3Cl)nc3ccccc23)c1 | inconclusive: 14.1 µM [quencher, partial curve]
CC(C)=CCCC1=CC[C@H](C(=O)O)[C@H](C(=O)O)C1 | inconclusive: 2.82 µM [quencher, side channel, full curve, poor fit]
CC1(C)C(/C=C/C=C/C=C/C=C2\N(CCCCS(=O)(=O)O)c3ccc4ccccc4c3C2(C)C)=[N+](CCCCS(=O)(=O)[O-])c2ccc3ccccc3c21 | inactive
O=C(O)/C(=C\c1ccc(Cl)c([N+](=O)[O-])c1)c1ccc(S(=O)(=O)N2CCCCC2)s1 | inconclusive: 15.8 µM [quencher, side channel, partial curve]
COc1cccc(NCc2cc(=O)oc3cc(-c4ccccc4)c(O)cc23)c1 | inconclusive: 28.2 µM [quencher, side channel, partial curve]
CCNc1nc(NCc2ccccc2)nc(Oc2ccc(=O)[nH]n2)n1 | inconclusive: 31.6 µM [inhibitor, single point]

Compound | Potency
O=C(Nc1ccccc1)c1cccnc1NCCc1ccccc1 | inconclusive: 12.6 µM [quencher, side channel, partial curve]
Cc1cccnc1Nc1nc(-c2ccc(F)cc2)cs1 | inconclusive: 22.4 µM [quencher, side channel, single point]
COc1cccc(NC(=O)CC2C(=O)NCCN2C(=S)Nc2ccc(F)cc2)c1 (stereo not given) | inconclusive: 28.2 µM [quencher, side channel, single point]
COc1cc2c3nnc(-c4ccccc4)c-3cn(Cc3ccc(F)cc3)c2cc1OC | inconclusive: 39.8 µM [inhibitor, single point]
Cc1ccc(C(C)C)cc1NC(=O)Nc1ccc([N+](=O)[O-])cc1 | inconclusive: 3.16 µM [quencher, side channel, full curve]
Cc1ccc(-c2csc(/C(C#N)=C(\O)CN3CCN(C(=O)c4ccco4)CC3)n2)cc1 | inconclusive: 31.6 µM [quencher, side channel, single point]
Cn1c(SC(C(=O)Nc2ccc(F)cc2)c2ccccc2)nc2ccccc21 (stereo not given) | inactive
CCOC(=O)C1=C(N)n2c(s/c(=C\c3ccco3)c2=O)=C(C(=O)OC(C)C)C1c1ccco1 (stereo not given) | inconclusive: 22.4 µM [quencher, side channel, single point]
C=CCNCc1cc(=O)n2c(-c3ccccc3)csc2n1 | inconclusive: 22.4 µM [quencher, side channel, partial curve]
Cc1c(NC(=O)CN2CCN(C(c3ccccc3)c3ccccc3)CC2)c(=O)n(-c2ccccc2)n1C | inconclusive: 39.8 µM [inhibitor, single point]
O=C(Nc1ccncc1)c1ccc(S(=O)(=O)Nc2ccccc2)cc1 | inconclusive: 12.6 µM [quencher, side channel, partial curve]
CCO/N=C(/c1nonc1N)N1CCN(c2ccc([N+](=O)[O-])cc2)CC1 | inconclusive: 17.8 µM [quencher, side channel, partial curve]
CCn1c(C)cc(/C=C2\NC(=O)N(CC(=O)Nc3cccc(C)c3)C2=O)c1C | inconclusive: 12.6 µM [quencher, side channel, partial curve]
COc1ccc(C(CNC(=O)COc2ccccc2-c2ccccc2)N2CCOCC2)cc1 (stereo not given) | inconclusive: 17.8 µM [fluorescent, side channel, partial curve]
COc1cccc(Oc2cn[nH]c2-c2ccc(OCC(=O)NN)cc2O)c1 | inconclusive: 25.1 µM [quencher, side channel, single point]
O=C1CC(=O)N(Cc2ccco2)C(=S)N1 | inactive
CCc1ccc(N(CC)C(=O)c2cn(C)c(=O)c3ccccc23)cc1 | inconclusive: 17.8 µM [inhibitor, partial curve, poor fit]
CN(C)/C=N/c1ncc(C(=O)c2ccc3ccccc3c2)s1 | inconclusive: 4.47 µM [inhibitor, single point]
CN(C)S(=O)(=O)c1cccc(CSCc2cccc(S(=O)(=O)N(C)C)c2)c1 | inactive
COC(=O)[C@@]1(Cc2ccc(OC)cc2)[C@H]2c3cc(C(=O)N4CCCC4)n(Cc4cc(F)cc5c4OCOC5)c3C[C@H]2CN1C(=O)c1ccccc1 | inconclusive: 2.51 µM [fluorescent, side channel, full curve]
COc1ccc(/C=N/NC(=O)c2cc(-c3ccccc3)nc3ccccc23)cc1O | inconclusive: 17.8 µM [quencher, side channel, partial curve]
CCOc1cc(/C=C2/C(=O)N(c3ccccc3)N=C2C)ccc1OC(=O)c1ccco1 | inconclusive: 14.1 µM [quencher, side channel, partial curve]
COC(=O)c1ccc(NC(=O)Nc2ccc(OC)c(OC)c2)cc1 | inconclusive: 11.2 µM [quencher, side channel, partial curve]
CC(C)=CCC/C(C)=C/CO | inconclusive: 3.98 µM [inhibitor, partial curve]
N#C/C(=C\c1ccc(-c2ccc(C(=O)O)cc2)o1)c1nc2ccccc2[nH]1 | inconclusive: 7.94 µM [quencher, side channel, partial curve]
Cc1cc(C)n(CC(O)COc2cccc(OCC(O)Cn3nc(C)cc3C)c2)n1 (stereo not given) | inactive
N#CC(/C(=N/S(=O)(=O)c1cccs1)c1ccccc1)c1nc2ccccc2[nH]1 (stereo not given) | inconclusive: 25.1 µM [quencher, side channel, partial curve]
